{"source": "PubChem BioAssay (NCATS)", "note": "The inconclusive results got no clear call from the source; some entries with a clear call stand among them for comparison. Potencies of inconclusive entries are left out as doubtful fits. The source made the active and inactive calls. Calls follow the shape of the dose curve; as a rule, active = well fitted inhibition curve with a large enough effect; inconclusive = small, poorly fitted or top-dose-only effect; inactive = flat fitted curve, though single readings scatter. % is scaled to controls: 0 for no effect and ±100 for the full control effect; potency is read from the fitted curve at half-maximal effect; tags tell the direction and shape of the fitted curve.", "data": [{"assay": "qHTS to identify inhibitors of the type 1 interferon - major histocompatibility complex class I in skeletal muscle: primary screen against the NCATS LOPAC collection (AID 1347405);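 also: lytic HiBiT luminescence reporting HLA-B protein level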", "conditions": "iHSKM muscle cells, IFN-b-induced MHC-I HiBiT luminescence, 24 h; activity change, negative = inhibition: at 45.9 µM (top of the series)", "summary_of_the_method": "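After 24 h at 37 C with compounds (7-point, 1:4.3 dilutions, 46 uM top final) plus 4 ng/ml IFN-beta, luminescence from lytic HiBiT detection was measured. HLA-B*08:01 in C25cl48 myoblasts carried an endogenous C-terminal HiBiT tag; medium lacked dexamethasone.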", "values": [{"smiles": "CNCCCC1c2ccccc2C=Cc2ccccc21", "activity change, negative = inhibition": "inactive: -15.8%"}, {"smiles": "NC(=O)c1cccc(N)c1", "activity change, negative = inhibition": "inactive: 3.59%"}, {"smiles": "CC(C)C[C@H]1C(=O)N2CCC[C@H]2[C@]2(O)O[C@](NC(=O)[C@@H]3C=C4c5cccc6[nH]c(Br)c(c56)C[C@H]4N(C)C3)(C(C)C)C(=O)N12", "Potency": "inconclusive [inhibitor, partial curve, poor fit]"}, {"smiles": "C[n+]1cc2c3c(ccc2c2ccc4cc5c(cc4c21)OCO5)OCO3", "Potency": "active: 1.78 µM"}, {"smiles": "Nc1ncn([C@@H]2O[C@H](CO)[C@@H](O)[C@H]2O)c(=O)n1", "Potency": "active: 8.91 µM"}, {"smiles": "CN(C)CCCN1c2ccccc2Sc2ccc(Cl)cc21", "activity change, negative = inhibition": "inconclusive: -31% [inhibitor]"}, {"smiles": "CC/C(=C(\\c1ccccc1)c1ccc(OCCN(C)C)cc1)c1ccccc1", "Potency": "inconclusive [inhibitor, single point]"}]}]}
